The target in assay [1] is T1, WT FimD usher (purified, His-tag removed) (Escherichia coli, UniProt P30130 46-878).
T1 sequence: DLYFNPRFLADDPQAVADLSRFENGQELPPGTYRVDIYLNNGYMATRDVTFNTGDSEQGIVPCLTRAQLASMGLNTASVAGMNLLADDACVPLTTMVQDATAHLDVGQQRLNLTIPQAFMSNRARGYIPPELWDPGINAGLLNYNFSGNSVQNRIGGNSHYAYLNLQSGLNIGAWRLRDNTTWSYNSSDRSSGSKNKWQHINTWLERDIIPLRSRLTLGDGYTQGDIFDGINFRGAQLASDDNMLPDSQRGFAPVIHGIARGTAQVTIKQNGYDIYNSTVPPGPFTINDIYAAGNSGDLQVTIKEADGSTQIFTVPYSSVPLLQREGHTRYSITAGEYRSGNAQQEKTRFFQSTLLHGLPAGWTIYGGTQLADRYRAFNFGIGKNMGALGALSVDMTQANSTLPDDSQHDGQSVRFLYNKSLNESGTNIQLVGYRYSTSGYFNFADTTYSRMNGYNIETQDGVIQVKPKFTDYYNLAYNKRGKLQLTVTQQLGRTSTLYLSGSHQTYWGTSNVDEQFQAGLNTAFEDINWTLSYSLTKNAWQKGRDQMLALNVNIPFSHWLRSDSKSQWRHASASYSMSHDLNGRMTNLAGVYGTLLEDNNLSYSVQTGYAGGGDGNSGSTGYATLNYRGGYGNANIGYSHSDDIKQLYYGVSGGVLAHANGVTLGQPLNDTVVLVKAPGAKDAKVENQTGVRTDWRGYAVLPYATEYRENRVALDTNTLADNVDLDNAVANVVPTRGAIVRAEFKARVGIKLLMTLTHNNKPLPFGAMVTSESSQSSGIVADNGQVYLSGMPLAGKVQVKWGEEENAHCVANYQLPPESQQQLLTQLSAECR
The experiment in a line: other fluorescence titration.

Assay [2] concerns the target T2, FimD_(Δplug) (purified, His-tag removed) (Escherichia coli, UniProt P30130 46-878, delete residues 244-323 | N243G).
T2 sequence: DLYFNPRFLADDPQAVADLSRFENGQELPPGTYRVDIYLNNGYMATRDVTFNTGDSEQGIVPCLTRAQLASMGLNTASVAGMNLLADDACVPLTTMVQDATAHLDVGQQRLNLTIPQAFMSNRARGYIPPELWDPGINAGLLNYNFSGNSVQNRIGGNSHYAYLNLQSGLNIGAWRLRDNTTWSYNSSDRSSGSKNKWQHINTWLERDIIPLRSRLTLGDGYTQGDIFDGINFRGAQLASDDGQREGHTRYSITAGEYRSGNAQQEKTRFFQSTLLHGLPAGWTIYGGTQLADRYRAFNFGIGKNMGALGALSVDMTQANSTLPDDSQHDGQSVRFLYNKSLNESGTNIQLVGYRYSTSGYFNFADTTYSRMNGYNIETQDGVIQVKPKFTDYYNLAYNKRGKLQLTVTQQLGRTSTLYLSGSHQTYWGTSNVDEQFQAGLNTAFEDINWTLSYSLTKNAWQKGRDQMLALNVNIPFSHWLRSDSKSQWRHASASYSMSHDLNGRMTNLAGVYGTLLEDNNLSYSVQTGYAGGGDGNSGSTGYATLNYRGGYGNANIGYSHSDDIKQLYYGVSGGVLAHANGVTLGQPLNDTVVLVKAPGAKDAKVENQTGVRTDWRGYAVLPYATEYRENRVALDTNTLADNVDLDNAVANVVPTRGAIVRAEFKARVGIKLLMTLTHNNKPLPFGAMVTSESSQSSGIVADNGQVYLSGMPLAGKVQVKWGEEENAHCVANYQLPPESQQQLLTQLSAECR
The assay can be described thus: other fluorescence titration.

Broadly, the Kd is the free concentration of one partner at which half of the binding sites on the other are occupied at equilibrium, for simple one-to-one binding. A higher Kd goes with weaker binding.

Changes are numbered by the printed parent chain. Names and notes keep the numbering of the source.

B1: FimC_(Q19C)-FimH chaperone-adhesin complex, FimC labeled with coumarin maleimide (CPM) (complex)
chain 1: GVALGATRVIYPAGQKQECLAVTNNDENSTYLIQSWVENADGVKDGRFIVTPPLFAMKGKKENTLRILDATNNQLPQDRESLFWMNVKAIPSMDKSKLTENTLQLAIISRIKLYYRPAKLALPPDQAAEKLRFRRSANSLTLINPTPYYLTVTELNAGTRVLENALVPPMGESTVKLPSDAGSNITYRTINDYGALTPKMTGVME
chain 2: [about 300 residues not given here]
modifications: coumarin maleimide (CPM) on the cysteine at position 19
On to B1, for which the Kd in assay [1] was 0.0126 µM; in assay [2], 0.0125 µM.

B2: FimC_(T51C)-FimH chaperone-adhesin complex, FimC labeled with coumarin maleimide (CPM) (complex)
chain 1: B1 chain 1 with C19Q, T51C
chain 2: [about 300 residues not given here]
modifications: coumarin maleimide (CPM) on the cysteine at position 51
For the molecule B2, the binding result in assay [1] is “binds”.

B3: FimC_(N86C)-FimH chaperone-adhesin complex, FimC labeled with coumarin maleimide (CPM) (complex)
chain 1: B1 chain 1 with C19Q, N86C
chain 2: [about 300 residues not given here]
modifications: coumarin maleimide (CPM) on the cysteine at position 86
Take B3: in assay [1], the binding result is given as “binds”.
